The supplement of paper PMC11417369
The other results are listed elsewhere or left out.

Tested on: PfAP2-HC AP2 domain (GST-tagged)
Experiment: gcPBM binding intensity (ln(normalized median fluorescence intensity)); higher = stronger DNA binding
How it was run: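 Binding intensity is defined as the maximum Masliner-normalised natural-log median intensity across replicate spots for either probe orientation. It was measured on an Agilent 4 × 180k array of primer-extended double-stranded 36-bp intergenic genomic probes and negative controls, to which GST-tagged P. falciparum DNA-binding domains made in E. coli were applied for 1 h in 1× PBS with 1% milk, 0.2 mg/ml BSA, 0.5% salmon testes DNA and 0.03% Triton X-100. Detection was by Alexa488 anti-GST antibody and scanning at 488 nm.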

First: AATGTATATAATATTAATATGTAAATATATAATCAA [CACACA_negctrl_site1683]
Second: AACATATACCCAGGTACATGCAAATATATATATTAT [TGCATGCA_site878]
The “gcPBM binding intensity (ln)” value of the first is higher: 9.7 for the first, 9.68 for the second.

Compared with “TTTAAAAATTAATTCTGTACACATTTTTATTTTATT [XGTACX_site8]”, “TTCTTTCTTCAAAAGTGTACCAAATGTTAGAAAGGT [XGTACX_site4353]” is lower in “gcPBM binding intensity (ln)” value: 9.77 for the first, 9.47 for the second.

Going from “ATATATATATATATGTGTACACAACAAAATAAAAAA [XGTACX_site7378]” to “AAAAAAATAACAAAATGTATACAATATAACAAAAAT [GTGCAC_negctrl_site512]”, the “gcPBM binding intensity (ln)” value falls from 10.1 to 9.92.

First: ATTCATTTCTATTTTACACACAATAAGTAACTTAAT [CACACA_site2850]
Second: CTCATCCTTACATACACACACATATATATATATATA [CACACA_site103]
The “gcPBM binding intensity (ln)” value of the first is lower: 9.97 for the first, 10.3 for the second.

Compared with “ATATTTAAATCGAAGGTGCGTATTTCCTTTTTTTTT [GTGCAC_site9632]”, “ATATATACATATAACACACACATATATATATATATA [CACACA_site2575]” is higher in “gcPBM binding intensity (ln)” value: 9.7 for the first, 10.1 for the second.

Compared with “AGTATAAATAAATCATAAACATATATATATATATAT [GTGCAC_negctrl_site356]”, “TTTATTTATTATTAAAGTACTAAATCATATTATTAT [XGTACX_site992]” is lower in “gcPBM binding intensity (ln)” value: 9.65 for the first, 9.55 for the second.

Going from “TTTTCTTTTTTCTGTTGTACTAAAAATAATTTTGTA [XGTACX_site5171]” to “TATTTATATATTATGTGTCCACATGTAAGCTATCTT [XGTACX_site3887]”, the “gcPBM binding intensity (ln)” value rises from 9.63 to 9.64.

First: CCACTAATAAATATTACACACATATATATATATATT [CACACA_site3128]
Second: TATACATTATCTTATGCATGCGCATCTGCATATAAA [TGCATGCA_site266]
The “gcPBM binding intensity (ln)” value of the first is higher: 9.91 for the first, 9.64 for the second.

Going from “ATTCACTAAAAAATTGCATGCAATAAATTTTTTTTT [TGCATGCA_site962]” to “TTTTATTGTTGTTATACACACCATATAAAATATTTC [CACACA_site4983]”, the “gcPBM binding intensity (ln)” value rises from 9.46 to 9.73.

Compared with “AATTGATTTATATATTGTACATATAAATTTATGTAT [XGTACX_site7785]”, GGGAAAATAAATAAAGTGCAGATATTAAAAGTTGTA is higher in “gcPBM binding intensity (ln)” value: 9.75 for the first, 9.82 for the second.

Going from “TTGCATATTTCTAATTGTACATTATTTTATTTTATA [XGTACX_site8451]” to “AATAAAAAATATATGAGTACTAAATTGTTTTCTTAA [XGTACX_site8573]”, the “gcPBM binding intensity (ln)” value falls from 9.79 to 9.61.

First: CTCAACGATAGAGAAACATGCAAGTATAAGCAACTA [TGCATGCA_site771]
Second: ATATTTATCTTTTTATGTACATATGCCCCTTTTCTG [XGTACX_site673]
The “gcPBM binding intensity (ln)” value of the first is higher: 9.73 for the first, 9.7 for the second.

“GAGTTATTTCTTATTTAAGCATTCTACATATATATA [CACACA_negctrl_site239]” and “AAGAAAATTAAATTAACACACATAAATATATATATA [CACACA_site1664]” are the same in “gcPBM binding intensity (ln)” value: 9.79 for the first, 9.79 for the second.

First: ATTTTACATATTTGCACACATATATTTAAATACATA [CACACA_site4627]
Second: GTCCTTATGGATGATAAATTATTTTAAATATTCTAT [XGTACX_negctrl_site200]
The “gcPBM binding intensity (ln)” value of the first is higher: 9.94 for the first, 9.47 for the second.

Going from “TCTTGGTTATTAAAAAAAAAAAAATATATTTTTCCT [TGCATGCA_negctrl_site445]” to “TCATATGTTTCATGTTGTACATTGAAAGTTTGGCTA [XGTACX_site3202]”, the “gcPBM binding intensity (ln)” value rises from 9.32 to 9.36.

First: GTTCTAATATATTGCACACGTAAAAATATAGGTAAT [CACACA_site886]
Second: AAATATGTACATATTATATATATATAATATATATTG [TGCATGCA_negctrl_site438]
The “gcPBM binding intensity (ln)” value of the first is higher: 9.93 for the first, 9.65 for the second.

Going from “TGTTAATTAAAGGACTGTACACTAATAATTCTATAA [XGTACX_site5195]” to “TAATTGTACGCCAATACACACAGAATTAGAATGTAG [CACACA_site102]”, the “gcPBM binding intensity (ln)” value rises from 9.6 to 9.93.

First: ATAAATAAATGGTGTTGTACTCTATTATATATATAT [XGTACX_site7835]
Second: AAAAAAAAAATATATATATATATATATATATAATTT [GTGCAC_negctrl_site32]
The “gcPBM binding intensity (ln)” value of the first is higher: 9.78 for the first, 9.4 for the second.

Compared with “AATAAATATAGATTCACACACAAACATATATAAATA [CACACA_site7814]”, “AAGAAAAAAATTTATACAAGAATTTTTTATTATTAA [TGCATGCA_negctrl_site587]” is lower in “gcPBM binding intensity (ln)” value: 10.1 for the first, 9.45 for the second.

Going from “AAAAAAAAAAAACACACACACACATAAATATATATA [CACACA_site149]” to “TATTAACATATATAAAGTACATTAAACAACATTGTA [XGTACX_site7667]”, the “gcPBM binding intensity (ln)” value falls from 10.6 to 9.56.

Going from “TGTAAATTTGGCATCACACATAAATAAACATATAAA [CACACA_site4497]” to “AACATTCTAAAACACACACACACATATATATATATA [CACACA_site1052]”, the “gcPBM binding intensity (ln)” value rises from 9.74 to 10.7.

Compared with “TACACAAGCGGACACACACACATATATATATATATA [CACACA_site4832]”, “TATATATAAAAAAGCACACATACATACATACATAAT [CACACA_site890]” is lower in “gcPBM binding intensity (ln)” value: 10.3 for the first, 10 for the second.

First: TTTTCACTTTTAAAAACATGCATACTTTATAAAATA [TGCATGCA_site967]
Second: ATGTCTATAATAAGAACACACATATATTTAATTTAA [CACACA_site7394]
The “gcPBM binding intensity (ln)” value of the first is lower: 9.37 for the first, 9.65 for the second.

Going from “TGGTAAAGGAGCAAGATGATAAATCTCCATAACTTT [CACACA_negctrl_site492]” to “CTATATTCGTTTAATAGTACATATATAACTAGACAA [XGTACX_site5770]”, the “gcPBM binding intensity (ln)” value rises from 9.44 to 9.45.

First: TATATATATATGTATACACACATACAAATATGTAAA [CACACA_site9238]
Second: GTTGGTACCTTACTTTTACACACTTTTTTTTTTTTT [CACACA_site8441]
The “gcPBM binding intensity (ln)” value of the first is lower: 9.74 for the first, 9.94 for the second.

First: AAAAGAAATATTTATACACACACACTAACATATATA [CACACA_site8580]
Second: GTGAAAAAAAACATATGTACTTATACACTAATCTAT [XGTACX_site7600]
The “gcPBM binding intensity (ln)” value of the first is higher: 10.7 for the first, 9.73 for the second.

Compared with “TTATATATAATTACATGTACGTAGTATTATTTAAAT [XGTACX_site3418]”, “TTATCATTTTAATGGTGTACTCAATAAAAACTTTAA [XGTACX_site4595]” is lower in “gcPBM binding intensity (ln)” value: 9.39 for the first, 9.13 for the second.

First: TACACAAGAAAATTCACACACACACCCATATATATA [CACACA_site3879]
Second: AACATACATGTATATAGTACATATTACATCTGATAC [XGTACX_site3649]
The “gcPBM binding intensity (ln)” value of the first is higher: 10.7 for the first, 9.84 for the second.
